Data from the CheMixHub viscosity set.

| Structure (SMILES) | viscosity (303.15 K, 101 kPa) | viscosity (308.15 K, 101 kPa) | viscosity (313.15 K, 101 kPa) | further results |
| --- | --- | --- | --- | --- |
| Brc1ccccc1 | 0.987 ± 0.032 mPa·s [study A] and 0.987 ± 0.021 mPa·s [study B] and 0.992 ± 0.009 mPa·s [study C] and 1.004 ± 0.0094 mPa·s [study D] and 1.016 ± 0.065 mPa·s [study E] and 0.992 ± 0.017 mPa·s [study F] | 0.939 ± 0.03 mPa·s [study A] and 0.964 ± 0.012 mPa·s [study B] and 0.938 ± 0.02 mPa·s [study C] and 0.9545 ± 0.021 mPa·s [study D] and 0.938 ± 0.008 mPa·s [study E] and 0.934 ± 0.025 mPa·s [study F] and 0.9463 ± 0.009 mPa·s [study G] | 0.89 ± 0.029 mPa·s [study A] and 0.891 ± 0.019 mPa·s [study B] and 0.881 ± 0.015 mPa·s [study C] and 0.8883 ± 0.0087 mPa·s [study D] |  |
| CCCCn1cc[n+](C)c1.O=S(=O)([N-]S(=O)(=O)C(F)(F)F)C(F)(F)F |  |  |  | viscosity (298.15 K, 100 kPa): 51.32 ± 0.42 mPa·s [study A] and 49.6 ± 0.63 mPa·s [study B] and 49.11 ± 2.2 mPa·s [study C] and 50.76 ± 3 mPa·s [study D] and 49.3 ± 1 mPa·s [study E]; viscosity (308.15 K, 100 kPa): 34.43 ± 1.8 mPa·s [study A] and 33.25 ± 0.42 mPa·s [study B] and 33.22 ± 1.5 mPa·s [study C] and 34.27 ± 2 mPa·s [study D] |
| C1COCCO1 |  | 0.999 ± 0.017 mPa·s [study A] and 1.015 ± 0.021 mPa·s [study B] and 0.976 ± 0.013 mPa·s [study C] and 0.9779 ± 0.0095 mPa·s [study D] and 0.9469 ± 0.0076 mPa·s [study E] and 0.9985 ± 0.026 mPa·s [study F] |  | viscosity (313.15 K, 101.3 kPa): 0.9416 ± 0.015 mPa·s, 0.9414 ± 0.015 mPa·s, 0.9415 ± 0.015 mPa·s [study A] and 0.9425 ± 0.024 mPa·s [study B] |
| O=C1CCCO1 | 1.589 ± 0.026 mPa·s [study A] and 1.61 ± 0.09 mPa·s [study B] and 1.636 ± 0.014 mPa·s [study C] and 1.545 ± 0.11 mPa·s [study D] |  | 1.377 ± 0.023 mPa·s [study A] and 1.39 ± 0.08 mPa·s [study B] and 1.409 ± 0.013 mPa·s [study C] and 1.338 ± 0.096 mPa·s [study D] |  |
| O | 0.8178 ± 0.011 mPa·s [study A] and 0.826 ± 0.0073 mPa·s [study B] and 0.73 ± 0.02 mPa·s [study C] and 0.7959 mPa·s [study D] and 0.78 ± 0.02 mPa·s [study E] and 0.791 ± 0.008 mPa·s [study F] and 0.814 ± 0.007 mPa·s [study G] |  | 0.66 ± 0.02 mPa·s, 0.98 ± 0.07 mPa·s, 0.6482 ± 0.12 mPa·s, 0.699 ± 0.006 mPa·s, 0.66 ± 0.11 mPa·s, 0.6214 ± 0.021 mPa·s, 0.6435 ± 0.0063 mPa·s, 0.662 ± 0.13 mPa·s, 0.6852 ± 0.0093 mPa·s, 0.64 ± 0.02 mPa·s [several studies] | viscosity (293.15 K, 101 kPa): 0.91 ± 0.02 mPa·s [study A] and 0.97 ± 0.02 mPa·s [study B] and 0.974 ± 0.009 mPa·s [study C] and 1.2 ± 0.08 mPa·s [study D]; viscosity (318.15 K, 100 kPa): 0.614 ± 0.008 mPa·s [study A] and 0.6 ± 0.04 mPa·s [study B] and 0.608 ± 0.049 mPa·s [study C] and 0.606 ± 0.037 mPa·s [study D] and 0.6 ± 0.04 mPa·s [study E]; viscosity (318.15 K, 101 kPa): 0.6 ± 0.009 mPa·s [study A] and 0.6 ± 0.1 mPa·s [study B] and 0.5346 ± 0.021 mPa·s [study C] and 0.624 ± 0.0062 mPa·s [study D] and 0.6071 mPa·s [study E] and 0.594 ± 0.006 mPa·s [study F] and 0.6 ± 0.02 mPa·s [study G] |

± gives the uncertainty stated by the source. Certain results were filed several times, with different values. This list holds those alone. There may be further records. The values listed for one entry repeat one measurement in other runs, samples, wells, individuals or studies. What stands in brackets tells the records apart. The letters are not those of the source and start again with each entry.
